Broadly, the % Inhibition is the drop in the measured response relative to a control, in per cent.

Screen size: about 150,000 compounds; about 540 (0.36%) showed an effect of 50% or more. The list shows a part of the results.

The test system of the assay is Plasmodium falciparum. As to the kind of experiment: Primary screen in NF54 nanoGlo assay, in single point, at 2uM, 72h; a lower Z score goes with more inhibition. The settings on record: timepoint 72 hour. In kind it is functional, Erythrocyte.
With `Cc1sc(-c2ccccc2Cl)nc1C(=O)NCCc1cnc[nH]1`, the “% Inhibition” value is -6% and the Z score turned out to be 0.93.

For `CC1CN(C(=O)C#Cc2ccccc2)CC2(CCOC2C)O1` (stereo unspecified), the “% Inhibition” value is on record as 2% and the Z score is reported as -0.24.

For the compound `CCOc1ccc(Cc2nn(C(C)=O)c3c2C(=O)CC(C)(C)C3)cc1OCC`, the “% Inhibition” value is listed as 35% and the Z score is -3.99.

In the case of `CC1CCN(S(=O)(=O)c2ccc(CC(=O)N3CCOCC3)s2)CC1`, the “% Inhibition” value is reported as 3% and the Z score was -0.54.

In the case of `C#Cc1cc(C(F)(F)F)cc(C#N)c1N`, the “% Inhibition” value is 31% and the Z score was -0.81.

Take `COC(=O)CN(Cc1cccnc1)CC(C)C`: the “% Inhibition” value is reported as -1% and the Z score is 0.1.

`C[C@@H](c1ccncn1)N(C)CC(=O)N1CCOCC1`: the “% Inhibition” value is reported as -8% and the Z score is on record as 1.04.

In the case of `Cc1ccc2c(c1)NC(=O)c1cc(NS(=O)(=O)CCN3C(=O)CCCC3=O)ccc1O2`, the “% Inhibition” value is given as -4% and the Z score was determined as 0.58.

Regarding `CC(C)[C@H](CC(=O)O)NCc1ccccc1Cl`, the “% Inhibition” value was -5% and the Z score came out at 0.85.

On to `Fc1ccccc1N1CCC2(CC1)NCCc1[nH]cnc12`, for which the “% Inhibition” value was -5% and the Z score is on record as 0.74.

For the compound `O=C(NCC1CCOCC1)c1ccc(-c2ccc(Cl)cn2)cc1`, the “% Inhibition” value is 7% and the Z score is given as -1.01.

Consider `OCC1(CN[C@@H]2C=CC3(CCCCC3)CC2)CCOCC1`, for which the “% Inhibition” value was -8% and the Z score worked out at 1.25.

Take `Cc1ccc(S(=O)(=O)N[C@@H]2COc3ccc(Br)cc3C2)c(C)c1`: the “% Inhibition” value was 0% and the Z score was 0.

With `N#Cc1cc(N2CC[C@]3(CCOC3)C2)nc2ccccc12`, the “% Inhibition” value is recorded as -13% and the Z score was 1.59.

`CC(C)(C(=O)NCCc1cn[nH]c1)N1CCCC1`: the “% Inhibition” value is given as -13% and the Z score is given as 1.13.

For `CO[C@H]1[C@@H]2CC[C@H]1CN(C(=O)CCc1nc3ccccc3[nH]1)C2`, the “% Inhibition” value is recorded as -1% and the Z score is 0.09.

On to `Cn1nc(-c2nc(-c3cccc(F)c3)no2)c2c1CCN(C(=O)c1ccccn1)C2`, for which the “% Inhibition” value was 12% and the Z score is -1.38.

As for `CCCCc1nc(CN2C[C@@H]3CC[C@H]2CN(C(=O)c2ccccc2)C3)c[nH]1`, the “% Inhibition” value was found to be 2% and the Z score is -0.45.

For the compound `CC(C)N(C(=O)[C@H](C)S(C)(=O)=O)c1cccc(C(F)(F)F)c1`, the “% Inhibition” value is on record as 7% and the Z score is given as -1.02.

Regarding `NC(=NS(=O)(=O)c1ccc(Cl)cc1)C(Cl)(Cl)Cl`, the “% Inhibition” value is on record as -23% and the Z score was 4.26.

With `CCc1cc(C(=O)NCCc2cccs2)nc2cc(-c3ccccn3)nn12`, the “% Inhibition” value is reported as -15% and the Z score stood at 2.03.

Consider `O=C(Cn1c(=O)n(CCc2cccs2)c(=O)c2sccc21)Nc1ccc2c(c1)OCCO2`, for which the “% Inhibition” value is reported as -1% and the Z score is 0.18.

For the compound `Cc1ccc2nc(-c3ccc(NC(=O)c4ccc5ccccc5c4)cc3)oc2c1`, the “% Inhibition” value is listed as -18% and the Z score turned out to be 3.33.

Consider `COC(CS(=O)(=O)NC1CCCS(=O)(=O)C1)c1ccccc1` (stereo unspecified), for which the “% Inhibition” value came to 3% and the Z score is reported as -0.44.

For the compound `O=C1CC[C@H](C(=O)N2CCCCO2)CN1CCN1CCOCC1`, the “% Inhibition” value is on record as -15% and the Z score was determined as 1.87.

For `O=C(c1cc2ncccc2o1)N1CCO[C@H]2COCC[C@H]21`, the “% Inhibition” value is -11% and the Z score worked out at 1.21.

`CCC[C@H]1CN(C(=O)c2cn[nH]c2)CCN1C(=O)c1cn[nH]c1`: the “% Inhibition” value is listed as -6% and the Z score came out at 0.59.

On to `CC(=O)NC[C@H]1CCC2(CCN(c3nc4c(s3)c(C)nn4C)CC2)O1`, for which the “% Inhibition” value is reported as 1% and the Z score is reported as -0.25.

In the case of `O=C1CCCN1CC1CCN(C(=O)c2ccc(-c3cn[nH]c3)nc2)CC1`, the “% Inhibition” value was -12% and the Z score was 1.73.

`Cc1cc(C(=O)Cn2cnc(C#N)c2C#N)ccc1F`: the “% Inhibition” value worked out at 26% and the Z score is -2.94.

As to `Cc1nc(CN(C)Cc2cccnc2N)cs1`, the “% Inhibition” value is recorded as -16% and the Z score was determined as 1.46.

`Cc1ccc(-n2c(=O)[nH]c3nc(-n4ccnc4)ncc3c2=O)cc1F`: the “% Inhibition” value is -4% and the Z score is listed as 0.55.

`Cc1cc(C)cc(NC(=O)C2=NCCN2)c1`: the “% Inhibition” value was -22% and the Z score is reported as 2.62.

With `COc1cccc(NC(=O)Nc2ccc3c(c2)CN(Cc2ccc(Cl)cc2)C(=O)[C@H](C)O3)c1`, the “% Inhibition” value is recorded as -6% and the Z score was 0.65.

Consider `O=C(NCCCc1cnc2ncnn2c1)c1cc(-c2ccc(F)cc2)c[nH]1`, for which the “% Inhibition” value came out at 9% and the Z score was -1.64.

Consider `O=C(c1ccc(OC2CCC2)cc1)N1CCCCC1`, for which the “% Inhibition” value is given as -21% and the Z score amounted to 2.11.

As for `O=C1CN(c2nc(C(F)(F)F)nc3ccsc23)CCN1`, the “% Inhibition” value is reported as -5% and the Z score is recorded as 0.68.

As to `CN(c1nc2cccc(F)c2s1)C1CCN(c2cnccn2)CC1`, the “% Inhibition” value is given as -13% and the Z score came out at 1.37.

In the case of `Cn1cncc1-c1ccc(C(=O)NC[C@H]2CCCO2)cc1`, the “% Inhibition” value is -14% and the Z score stood at 2.55.

`COc1cc(C(F)(F)F)ncc1NC(=O)CC[C@H]1CCCOC1`: the “% Inhibition” value was -7% and the Z score is listed as 1.17.

For the compound `C[C@H](NC(=O)N(C)C1CC1)c1noc(Cc2ccccc2)n1`, the “% Inhibition” value is given as -7% and the Z score was found to be 0.93.

For the compound `Cc1ccc(S(=O)(=O)c2cn(CC(=O)Nc3ccc(C)c(C)c3)c3nc(C)ccc3c2=O)cc1`, the “% Inhibition” value is on record as -12% and the Z score was determined as 1.24.

Take `CC1OCCCC1C(=O)N1CCNC(=O)C1C` (stereo unspecified): the “% Inhibition” value is listed as -6% and the Z score is 0.93.

For the origin of these results see ChEMBL document CHEMBL4888484, “Replenishing the malaria drug discovery pipeline: Screening and hit evaluation of the MMV Hit Generation Library 1 (HGL1) against asexual blood stage Plasmodium falciparum ,using a nano luciferase reporter read-out” (2022).
